Test results: PubChem BioAssay AID588342 (National Center for Advancing Translational Sciences (NCATS), 2011)
Out of some 360,000 compounds screened, about 25,000 (6.9%) were called active. Inconclusive results, whose numbers are uncertain, are shown with a selection of clear calls. Calls come from the whole dose curve; as a rule, active = well fitted inhibition curve with a large enough effect; inconclusive = small, poorly fitted or top-dose-only effect; inactive = flat fitted curve, though single readings scatter. A potency beside an inconclusive call is a rough fit, not a confirmed value.

Molecular target: Luciferin 4-monooxygenase (Photinus pyralis) (UniProt P08659)
Experiment: qHTS profiling assay for firefly luciferase inhibitor/activator using purifed enzyme and Km concentrations of substrates (counterscreen for miR-21 project); note: nearly all actives have a fitted effect of over 55% in size
Settings: purified FLuc, luminescence inhibition; series mostly up to 57.5 µM
In short: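 Biochemical qHTS of compounds, final roughly 60 µM downward over six points, against 10 nM purified firefly luciferase using Km concentrations of substrates (10 uM D-luciferin, 10 uM ATP) in Tris acetate pH 7.5 buffer; luminescence output.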
Potency is the fitted concentration of half-maximal effect; tags give direction and shape of the fitted curve.

UniProt P08659, sequence (P08659 whole entry, looked up): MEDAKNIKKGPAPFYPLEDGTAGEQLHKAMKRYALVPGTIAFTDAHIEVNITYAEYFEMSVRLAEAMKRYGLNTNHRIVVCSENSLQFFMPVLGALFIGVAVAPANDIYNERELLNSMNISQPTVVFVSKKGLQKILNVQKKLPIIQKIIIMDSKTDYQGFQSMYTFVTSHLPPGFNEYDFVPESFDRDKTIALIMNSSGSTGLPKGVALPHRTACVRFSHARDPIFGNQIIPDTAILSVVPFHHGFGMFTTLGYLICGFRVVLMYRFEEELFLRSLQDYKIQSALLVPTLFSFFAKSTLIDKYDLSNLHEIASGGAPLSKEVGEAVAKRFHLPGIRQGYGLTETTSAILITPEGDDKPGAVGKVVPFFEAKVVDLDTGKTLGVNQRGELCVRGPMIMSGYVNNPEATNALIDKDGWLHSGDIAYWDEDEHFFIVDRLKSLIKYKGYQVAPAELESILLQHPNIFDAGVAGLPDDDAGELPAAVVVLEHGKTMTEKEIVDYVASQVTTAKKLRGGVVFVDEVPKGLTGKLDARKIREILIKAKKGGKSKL

SMILES | Potency
CCCCCNS(=O)(=O)c1ccc(N2CCCCS2(=O)=O)cc1 | inactive
C=C1SC(=Nc2ccccc2Cl)N(C(=O)c2sc3ccccc3c2Cl)C12CCCCC2 | active: 21.3 µM
Cn1c(CNC(=O)c2ccc3c(c2)OCO3)nnc1SCC(=O)Nc1ccc(F)cc1 | inconclusive: 23.9 µM [inhibitor, single point]
CC(C)(C)c1nc(SCC(=O)N2CC(=O)Nc3ccccc32)c2ccccc2n1 | inactive
COc1ccc(CCC(=O)NCc2nc3cccnc3n2Cc2ccc(C)cc2)cc1 | inactive
O=C(NCc1cccnc1)C(=O)Nc1nc(-c2ccccc2)cs1 | inconclusive: 21.3 µM [inhibitor, partial curve]
CCO/C(C)=C1\N=C(c2ccc(Cl)cc2)OC1=O | inconclusive: 19 µM [inhibitor, partial curve]
Cc1ccc(C(=O)Nc2nnc(NC(=S)Nc3ccccc3)s2)cc1 | active: 19 µM
CC12CCC(C(=O)Nc3ccc4c(c3)OCCO4)(OC1=O)C2(C)C (stereo not given) | inconclusive: 37.9 µM [inhibitor, single point]
CCOC(=O)N1CCN(CC(=O)N2CCC(C(N)=O)CC2)CC1 | inactive
COC(=O)Cc1c(C)[nH]n(-c2cc(Cl)cc(Cl)c2)c1=O | inconclusive: 9.53 µM [inhibitor, partial curve]
O=C(Cc1ccccc1[N+](=O)[O-])NCCSCc1c(F)cccc1Cl | inconclusive: 37.9 µM [inhibitor, partial curve, poor fit]
O=c1c2c([N+](=O)[O-])cc([N+](=O)[O-])cc2sn1Cc1ccccc1 | active: 9.53 µM
COc1cc(NC(=O)CSc2nc3c(c(=O)[nH]2)CCCC3)cc(OC)c1OC | inconclusive: 37.9 µM [inhibitor, partial curve, poor fit]
COC(=O)CSc1nc2ccc(C)cc2cc1C#N | inconclusive: 0.849 µM [inhibitor, full curve]
Cc1ccc(C)c(N2CCN(S(=O)(=O)c3ccc4c(c3)CC(=O)N4C)CC2)c1 | inactive
COc1cc(/C=C/c2nc3ccccc3c(=O)[nH]2)cc(OC)c1OC | inconclusive: 9.53 µM [inhibitor, partial curve]
Cn1nnc2cc(C(=O)NC3CC3)ccc21 | inactive
CCCN(C(=O)Cc1c(C(=O)O)[nH]c2ccc(Cl)cc12)c1ccc(OCC)cc1 | inconclusive: 16.9 µM [inhibitor, partial curve]
CN1CCc2c(sc3ncn4nc(-c5ccccc5O)nc4c23)C1 | inconclusive: 23.9 µM [inhibitor, partial curve, poor fit]
